Results are given in words; binding and its absence hold for the method and conditions named. In cells and extracts the contact can be indirect. Some results given as binding are weak or reduced against the parent protein; the word gives no strength. For some of these results: Tags and fused reporters may be left off the sequences shown.
T1: Immunity Related GTPase M (IRGM), endogenous (human (endogenous in THP-1)) (UniProt A1A4Y4)
T1 sequence: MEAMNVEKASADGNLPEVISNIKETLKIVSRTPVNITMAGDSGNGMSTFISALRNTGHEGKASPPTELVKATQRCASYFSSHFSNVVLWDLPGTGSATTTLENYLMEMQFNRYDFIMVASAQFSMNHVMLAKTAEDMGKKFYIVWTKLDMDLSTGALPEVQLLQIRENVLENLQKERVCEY

T2: GFP-IRGM (human) (UniProt A1A4Y4)
T2 sequence: T1 sequence

B1: RIG-I, endogenous (protein, UniProt O95786 1-925)
chain: MTTEQRRSLQAFQDYIRKTLDPTYILSYMAPWFREEEVQYIQAEKNNKGPMEAATLFLKFLLELQEEGWFRGFLDALDHAGYSGLYEAIESWDFKKIEKLEEYRLLLKRLQPEFKTRIIPTDIISDLSECLINQECEEILQICSTKGMMAGAEKLVECLLRSDKENWPKTLKLALEKERNKFSELWIVEKGIKDVETEDLEDKMETSDIQIFYQEDPECQNLSENSCPPSEVSDTNLYSPFKPRNYQLELALPAMKGKNTIICAPTGCGKTFVSLLICEHHLKKFPQGQKGKVVFFANQIPVYEQQKSVFSKYFERHGYRVTGISGATAENVPVEQIVENNDIIILTPQILVNNLKKGTIPSLSIFTLMIFDECHNTSKQHPYNMIMFNYLDQKLGGSSGPLPQVIGLTASVGVGDAKNTDEALDYICKLCASLDASVIATVKHNLEELEQVVYKPQKFFRKVESRISDKFKYIIAQLMRDTESLAKRICKDLENLSQIQNREFGTQKYEQWIVTVQKACMVFQMPDKDEESRICKALFLYTSHLRKYNDALIISEHARMKDALDYLKDFFSNVRAAGFDEIEQDLTQRFEEKLQELESVSRDPSNENPKLEDLCFILQEEYHLNPETITILFVKTRALVDALKNWIEGNPKLSFLKPGILTGRGKTNQNTGMTLPAQKCILDAFKASGDHNILIATSVADEGIDIAQCNLVILYEYVGNVIKMIQTRGRGRARGSKCFLLTSNAGVIEKEQINMYKEKMMNDSILRLQTWDEAVFREKILHIQTHEKFIRDSQEKPKPVPDKENKKLLCRKCKALACYTADVRVIEECHYTVLGDAFKECFVSRPHPKPKQFSSFEKRAKIFCARQNCSHDWGIHVKYKTFEIPVIKIESFVVEDIATGVQTLYSKWKDFHFEKIPFDPAEMSK
B2: Flag-RIG-I (protein, UniProt O95786 1-925)
chain: B1 chain
B3: MDA5, endogenous (protein, UniProt Q9BYX4 1-1025)
chain: MSNGYSTDENFRYLISCFRARVKMYIQVEPVLDYLTFLPAEVKEQIQRTVATSGNMQAVELLLSTLEKGVWHLGWTREFVEALRRTGSPLAARYMNPELTDLPSPSFENAHDEYLQLLNLLQPTLVDKLLVRDVLDKCMEEELLTIEDRNRIAAAENNGNESGVRELLKRIVQKENWFSAFLNVLRQTGNNELVQELTGSDCSESNAEIENLSQVDGPQVEEQLLSTTVQPNLEKEVWGMENNSSESSFADSSVVSESDTSLAEGSVSCLDESLGHNSNMGSDSGTMGSDSDEENVAARASPEPELQLRPYQMEVAQPALEGKNIIICLPTGSGKTRVAVYIAKDHLDKKKKASEPGKVIVLVNKVLLVEQLFRKEFQPFLKKWYRVIGLSGDTQLKISFPEVVKSCDIIISTAQILENSLLNLENGEDAGVQLSDFSLIIIDECHHTNKEAVYNNIMRHYLMQKLKNNRLKKENKPVIPLPQILGLTASPGVGGATKQAKAEEHILKLCANLDAFTIKTVKENLDQLKNQIQEPCKKFAIADATREDPFKEKLLEIMTRIQTYCQMSPMSDFGTQPYEQWAIQMEKKAAKEGNRKERVCAEHLRKYNEALQINDTIRMIDAYTHLETFYNEEKDKKFAVIEDDSDEGGDDEYCDGDEDEDDLKKPLKLDETDRFLMTLFFENNKMLKRLAENPEYENEKLTKLRNTIMEQYTRTEESARGIIFTKTRQSAYALSQWITENEKFAEVGVKAHHLIGAGHSSEFKPMTQNEQKEVISKFRTGKINLLIATTVAEEGLDIKECNIVIRYGLVTNEIAMVQARGRARADESTYVLVAHSGSGVIEHETVNDFREKMMYKAIHCVQNMKPEEYAHKILELQMQSIMEKKMKTKRNIAKHYKNNPSLITFLCKNCSVLACSGEDIHVIEKMHHVNMTPEFKELYIVRENKALQKKCADYQINGEIICKCGQAWGTMMVHKGLDLPCLKIRNFVVVFKNNSTKKQYKKWVELPITFPNLDYSECCLFSDED
B4: AIM2, endogenous (protein, UniProt O14862 1-343)
chain: MESKYKEILLLTGLDNITDEELDRFKFFLSDEFNIATGKLHTANRIQVATLMIQNAGAVSAVMKTIRIFQKLNYMLLAKRLQEEKEKVDKQYKSVTKPKPLSQAEMSPAASAAIRNDVAKQRAAPKVSPHVKPEQKQMVAQQESIREGFQKRCLPVMVLKAKKPFTFETQEGKQEMFHATVATEKEFFFVKVFNTLLKDKFIPKRIIIIARYYRHSGFLEVNSASRVLDAESDQKVNVPLNIIRKAGETPKINTLQTQPLGTIVNGLFVVQKVTEKKKNILFDLSDNTGKMEVLGVRNEDTMKCKEGDKVRLTFFTLSKNGEKLQLTSGVHSTIKVIKAKKKT
B5: TLR7, endogenous (receptor, UniProt Q9NYK1 27-1049)
chain: ARWFPKTLPCDVTLDVPKNHVIVDCTDKHLTEIPGGIPTNTTNLTLTINHIPDISPASFHRLDHLVEIDFRCNCVPIPLGSKNNMCIKRLQIKPRSFSGLTYLKSLYLDGNQLLEIPQGLPPSLQLLSLEANNIFSIRKENLTELANIEILYLGQNCYYRNPCYVSYSIEKDAFLNLTKLKVLSLKDNNVTAVPTVLPSTLTELYLYNNMIAKIQEDDFNNLNQLQILDLSGNCPRCYNAPFPCAPCKNNSPLQIPVNAFDALTELKVLRLHSNSLQHVPPRWFKNINKLQELDLSQNFLAKEIGDAKFLHFLPSLIQLDLSFNFELQVYRASMNLSQAFSSLKSLKILRIRGYVFKELKSFNLSPLHNLQNLEVLDLGTNFIKIANLSMFKQFKRLKVIDLSVNKISPSGDSSEVGFCSNARTSVESYEPQVLEQLHYFRYDKYARSCRFKNKEASFMSVNESCYKYGQTLDLSKNSIFFVKSSDFQHLSFLKCLNLSGNLISQTLNGSEFQPLAELRYLDFSNNRLDLLHSTAFEELHKLEVLDISSNSHYFQSEGITHMLNFTKNLKVLQKLMMNDNDISSSTSRTMESESLRTLEFRGNHLDVLWREGDNRYLQLFKNLLKLEELDISKNSLSFLPSGVFDGMPPNLKNLSLAKNGLKSFSWKKLQCLKNLETLDLSHNQLTTVPERLSNCSRSLKNLILKNNQIRSLTKYFLQDAFQLRYLDLSSNKIQMIQKTSFPENVLNNLKMLLLHHNRFLCTCDAVWFVWWVNHTEVTIPYLATDVTCVGPGAHKGQSVISLDLYTCELDLTNLILFSLSISVSLFLMVMMTASHLYFWDVWYIYHFCKAKIKGYQRLISPDCCYDAFIVYDTKDPAVTEWVLAELVAKLEDPREKHFNLCLEERDWLPGQPVLENLSQSIQLSKKTVFVMTDKYAKTENFKIAFYLSHQRLMDEKVDVIILIFLEKPFQKSKFLQLRKRLCGSSVLEWPTNPQAHPYFWQCLKNALATDNHVAYSQVFKETV
B6: AIM2, overexpressed in HEK293T (protein, UniProt O14862 1-343)
chain: B4 chain
B7: Flag-NDP52 (protein, UniProt Q13137 1-446)
chain: MEETIKDPPTSAVLLDHCHFSQVIFNSVEKFYIPGGDVTCHYTFTQHFIPRRKDWIGIFRVGWKTTREYYTFMWVTLPIDLNNKSAKQQEVQFKAYYLPKDDEYYQFCYVDEDGVVRGASIPFQFRPENEEDILVVTTQGEVEEIEQHNKELCKENQELKDSCISLQKQNSDMQAELQKKQEELETLQSINKKLELKVKEQKDYWETELLQLKEQNQKMSSENEKMGIRVDQLQAQLSTQEKEMEKLVQGDQDKTEQLEQLKKENDHLFLSLTEQRKDQKKLEQTVEQMKQNETTAMKKQQELMDENFDLSKRLSENEIICNALQRQKERLEGENDLLKRENSRLLSYMGLDFNSLPYQVPTSDEGGARQNPGLAYGNPYSGIQESSSPSPLSIKKCPICKADDICDHTLEQQQMQPLCFNCPICDKIFPATEKQIFEDHVFCHSL

Columns and labels:
[1] = target: T1, Immunity Related GTPase M (IRGM), endogenous (human (endogenous in THP-1)); experiment: co-IP; immunoprecipitation of endogenous IRGM and endogenous sensor proteins in THP-1 cell lysates; NP-40 lysis buffer, protein G dynabeads, 4°C
GFP-IRGM (human) = target: T2, GFP-IRGM (human); experiment: co-IP; GFP-IRGM and Flag-tagged proteins overexpressed in HEK293T, cell lysates; NP-40 lysis buffer, protein G dynabeads, 4°C; reverse co-IPs too; for cGAS, RIG-I and TLR3 also in control siRNA or p62 siRNA transfected cells

Row | Binder | binding [1] | binding (GFP-IRGM (human))
1 | B1 | binds | 
2 | B2 |  | binds
3 | B3 | no binding | 
4 | B4 | no binding | 
5 | B5 | no binding | 
6 | B6 |  | no binding
7 | B7 |  | no binding
